Experimental data published in the antibiotic and cytotoxicity screens of Wong et al. (2023).
This is one part of the list.

System: HepG2
Experiment: cytotoxicity call (relative viability < 0.9)
Details: 10 µM

Row | Structure (SMILES) | cytotoxicity call
1 | COc1ccc(NC(=O)O[C@H]2[C@@H]3OC(=O)[C@@H](Cc4ccc5ccccc5c4)C/C=C/C[C@H](Cc4ccc5ccccc5c4)C(=O)O[C@H]3[C@@H](OC)O[C@@H]2CO)cc1 | active
2 | COCC(=O)Nc1ccc2c(c1)OC[C@@H](C)N(C(=O)Cc1ccccn1)C[C@H](C)[C@@H](OC)CN(C)C2=O | inactive
3 | COCC#Cc1ccc2c(c1)O[C@H](CN(C)C(=O)C1CCOCC1)[C@H](C)CN([C@H](C)CO)S2(=O)=O | inactive
4 | C[C@@H]1CN([C@@H](C)CO)C(=O)CCCn2cc(nn2)CO[C@@H]1CN(C)C(=O)Nc1ccc(N2CCN(C)CC2)cc1 | inactive
5 | O=C(C[C@@H]1CC[C@@H](NC(=O)c2cccnc2)[C@H](CO)O1)NCCN1CCCCC1 | inactive
6 | Cc1noc(C)c1NC(=O)Nc1ccc2c(c1)C(=O)N([C@H](C)CO)C[C@@H](C)[C@@H](CN(C)Cc1ccc3c(c1)OCO3)OCCCC[C@H](C)O2 | inactive
7 | Cc1ccc(S(=O)(=O)N(C)C[C@H]2Oc3c(NS(=O)(=O)c4ccccc4)cccc3C(=O)N([C@H](C)CO)C[C@@H]2C)cc1 | inactive
8 | C=CCn1c(=O)c2c(nc(NCCO)n2C)n(C)c1=O | inactive
9 | COc1ccc(CN(C)C[C@@H]2OCCCC[C@@H](C)Oc3ccc(NC(=O)Nc4ccc5c(c4)OCO5)cc3C(=O)N([C@@H](C)CO)C[C@H]2C)cc1 | active
10 | CN(C)CCCCNC(=O)[C@H]1C[C@H]2C(=O)N[C@@H](Cc3ccccc3)C(=O)N2[C@H]1c1cccc(OCCO)c1 | inactive
11 | OCc1ncc[nH]1 | inactive
12 | O=C(O)CCCC[C@@H]1SC[C@@H]2NC(=O)N[C@@H]21 | inactive
13 | CCCN(C)C[C@H]1OCCCC[C@@H](C)Oc2ccc(NC(=O)c3ccccc3)cc2C(=O)N([C@@H](C)CO)C[C@H]1C | inactive
14 | O=C1O[C@@H](c2ccccc2)[C@@H](c2ccccc2)N2[C@@H](c3ccc(O)cc3)[C@]3(C(=O)Nc4ccc(C#CCCO)cc43)[C@@H](C(=O)NC[C@H](O)c3ccccc3)[C@H]12 | inactive
15 | C[C@@H]1CN([C@@H](C)CO)C(=O)c2cc(NC(=O)Nc3cccc4ccccc34)ccc2O[C@@H](C)CCCCO[C@@H]1CN(C)Cc1ccc2c(c1)OCO2 | inactive
16 | O=C1OC2(c3ccc(O)cc3Oc3cc(O)ccc32)c2ccccc21 | inactive
17 | C[C@@H]1COCCC(=O)N1 | inactive
18 | COc1ccc(NC(=O)N(C)C[C@@H]2Oc3ccc(NC(=O)CCCN(C)C)cc3C(=O)N([C@@H](C)CO)C[C@H]2C)cc1 | inactive
19 | C[C@H](CO)N1C[C@H](C)[C@H](CN(C)C(=O)C2CCCCC2)OCCCC[C@H](C)Oc2ccc(NS(=O)(=O)c3ccccc3)cc2C1=O | inactive
20 | C[C@H](CO)N1C[C@H](C)[C@H](CN(C)Cc2ccc3c(c2)OCO3)Oc2c(NC(=O)c3cnccn3)cccc2C1=O | inactive
21 | C=CCC[C@@H](Cc1ccc(F)cc1)C(=O)O[C@@H](CNC(=O)[C@@H](CC=C)CC(=O)N[C@@H](CO)Cc1ccccc1)c1ccccc1 | inactive
22 | C[C@H](CO)N1C[C@H](C)[C@H](CN(C)S(=O)(=O)c2cn(C)cn2)OCc2ccccc2-c2ccccc2C1=O | inactive
23 | C[C@@H]1CCCCO[C@H](CN(C)S(C)(=O)=O)[C@@H](C)CN([C@@H](C)CO)C(=O)c2cc(NC(=O)c3ccncc3)ccc2O1 | inactive
24 | N#C[C@@H]1C(=O)NC(=O)[C@@H](C#N)C12CCCC2 | inactive
25 | COc1ccc(NC(=O)N(C)C[C@@H]2OCCCC[C@H](C)Oc3ccc(NC(=O)Nc4ccccc4)cc3C(=O)N([C@H](C)CO)C[C@@H]2C)cc1 | inactive
26 | COc1ccc(S(=O)(=O)Nc2ccc3c(c2)C(=O)N([C@@H](C)CO)C[C@@H](C)[C@@H](CN(C)Cc2ccccc2)OCCCC[C@@H](C)O3)cc1 | inactive
27 | C[C@H](CO)N1C[C@H](C)[C@@H](CN(C)Cc2ccc(-c3ccccc3)cc2)Oc2ccc(NS(=O)(=O)c3ccc(F)cc3)cc2CC1=O | active
28 | C[C@@H]1CN([C@H](C)CO)C(=O)c2cccc(NC(=O)NC3CCCCC3)c2O[C@@H]1CN(C)S(=O)(=O)c1cn(C)cn1 | inactive
29 | C[C@@H]1CN([C@H](C)CO)C(=O)c2cc(NC(=O)c3ccncc3)ccc2O[C@H]1CN(C)C(=O)Nc1ccc2c(c1)OCO2 | inactive
30 | C[C@@H]1CCCCO[C@H](CN(C)C(=O)c2ccccc2)[C@H](C)CN([C@@H](C)CO)C(=O)c2cc(NC(=O)Nc3ccc4c(c3)OCO4)ccc2O1 | inactive
